# In article PMC12136788:
# Some of the results follow.
# B1: ENSG00000107863:be:win_3901|CDS|ENSG00000107863|bound_else_gene|NA|bound_elsewhere_windowed (ssRNA)
# RNA: GGGAGUUCUACAGUCCGACGAUCGUGUUUGGUCCCACCCUUGUUCGAACAUCAGAAGACAACAUGACCCACAUGGUCACCCACAUGCCUGACCAGUACAAGAUUGUAGAAACGCUCAUCCAGCACCAUGACUGGUUUUUCACACAACAGAGGAUUGAGCAUCA
# B2: chr7:137227872:137228000:-|3pUTR|ENSG00000105894|msi1_unk|total|mutant (ssRNA)
# RNA: GGGAGUUCUACAGUCCGACGAUCGGAACAUAAAAAGGACAUCAGCAAACAGGAUCAGUUAACUAUUGCAUUUAUAUGUACCGCCGGCUUUGUAUUCAAAAAUUAUCUACCGCUAAGUACACAAUAAGCAAAAACAAAAAGAAACAACAGAGGAUUGAGCAUCA
# B3: chrX:18604022:18604123:+|CDS|ENSG00000008086|msi1|FALSE|unique (ssRNA)
# RNA: GGGAGUUCUACAGUCCGACGAUCGACGAAGGUCUCCCUGCCAAUGAAAGCUUCCUAAAUGGAAACCUUGCUGGAGCUAGUCUUAGUCCACUGCACACCAAAACCUACCAAGCAAGCAGCCAGCCUGGGUCUACCAGCAAAGAUCAACAGAGGAUUGAGCAUCA
# B4: ENSG00000198589:be:win_5601|CDS|ENSG00000198589|bound_else_gene|NA|bound_elsewhere_windowed (ssRNA)
# RNA: GGGAGUUCUACAGUCCGACGAUCGAAGAAUGCAGGCCUUGCUUUUAUCGAACUUGUCAAUGAAGGAAGGUUGCUUAGCCAGACAAUGAAGGAUCAUCUAGUAAGAGUAGCAAAUGAAGCUGAAUUUAUCCUGAGCAGGCAGAGCAACAGAGGAUUGAGCAUCA
# B5: chr12:123586815:123586897:+|5pUTR_CDS|ENSG00000086598|msi1_unk|total|mutant (ssRNA)
# RNA: GGGAGUUCUACAGUCCGACGAUCGAAUCCAGUGGGAAAUACACAUUUGCUGCUCACAUGGAUGGAACAUACAAAUUUUGUUUCCGUAACCGGAUGUCCACCAUGACUCCAAAAACCGUGAUGUUCACCAUUGAUAUUGGGGAGCAACAGAGGAUUGAGCAUCA
# B6: chr14:22612100:22612201:+|3pUTR|ENSG00000100439|msi1|total|mutant (ssRNA)
# RNA: GGGAGUUCUACAGUCCGACGAUCCCACCCCUGACCCAUCUGUCAGCUUUUUCCCAGGGAGCCGUUUCAGGGGUUCUGGGCAGCCGGCUGGGCCUGGCCUCAGAACCUGGUGGCUCCUGCCUGCUCCUUCACUUUUGUAAAACCCAACAGAGGAUUGAGCAUCA
# B7: ENSG00000115904:stop:overlap|stop_codon|ENSG00000115904|stop_codon|NA|stop_codon (ssRNA)
# RNA: GGGAGUUCUACAGUCCGACGAUCUUUUGCAACGAAUGGAAGAAUUUAUUGGAACAGUAAGAGAGCUGUACAGCCAUCAGAAUUAGUUGGAAGUGUGUGGACAAAAGAAGACAAAGAAAUUAACUCUCCUAAUCUUCUGAAAAUCAACAGAGGAUUGAGCAUCA
# B8: chr1:236581285:236581397:-|CDS|ENSG00000119285|unk|FALSE|unique (ssRNA)
# RNA: GGGAGUUCUACAGUCCGACGAUCCAUCUAGAAGAUGUUUUUCAGUUAUUCAAGUUCUGUUCUGUUUUAUGGACCUAUGGUUCUAGCCUUUCAAAUCCACUAAACUGCAGUGUGAAAACAGUGCUGCAGACUCAAGCUCUUUAUCAACAGAGGAUUGAGCAUCA
# B9: chr7:21908192:21908293:-|CDS|ENSG00000164649|msi1|total|mutant (ssRNA)
# RNA: GGGAGUUCUACAGUCCGACGAUCUUUUCCCGCGCACGCUUACAGAAUGAGAAAAAAACAAUUCUUGAAAGAAAGAAAGACUGCCGACAGGUGAUACAAAGGGAAGAUUCUACCUCUGAGUCUGAGGAUGACUCUCGGGAUGAGCAACAGAGGAUUGAGCAUCA
# B10: chr3:48467913:48467962:-|3pUTR|ENSG00000164054|msi1_unk|total|mutant (ssRNA)
# RNA: GGGAGUUCUACAGUCCGACGAUCCCCAGACAUGAAUACCUCGUGUUCCUCCUCCCUCUAUUACUGUUUCACCAGAGCUGUCUCCGCUCAAAUCUGUUGUGUUUCUGAGUCCCGGGUCUGUACACUUGUUUAUAAUAAAUGCAACAACAGAGGAUUGAGCAUCA
# B11: chr13:75481370:75481471:-|CDS|ENSG00000136111|msi1|FALSE|unique (ssRNA)
# RNA: GGGAGUUCUACAGUCCGACGAUCCUCAGCGCGCCCUUCCUGCGUUGCGUCCCCGCGCCGGGCGCUGGGGCCUCGGGGGGCACUAGUCCGUCGGCCACGCAGCCCAACCCGGCGGUAUUCAUCUUCGAGCACAAGGCGCAGCAUCAACAGAGGAUUGAGCAUCA
# B12: chr20:23354638:23354749:+|3pUTR|ENSG00000132661|unk|FALSE|unique (ssRNA)
# RNA: GGGAGUUCUACAGUCCGACGAUCAAGUUCUAGGAGUCCCUUUCCUGAAUAUAUACUUGUUUGUCAUAGUUUCCUUUUCAAAGUAGUAAACUUUUCUAUUUUUCUACUUGCCCAGUAGAGACUCUGAUUCUGGAAAUUCUGACACAACAGAGGAUUGAGCAUCA
# B13: chr13:29511929:29512034:-|3pUTR|ENSG00000139514|msi1_unk|FALSE|overlapping (ssRNA)
# RNA: GGGAGUUCUACAGUCCGACGAUCUAUCAUAUCCCUCAUUUCUUUCCCUGAAAUAAAAAUACACACAAGCAAAAAAAAAAUGAUAGUUUCACAUCUCUUAGUUCCCUUGCCCAAACAAGAAUAUUCUUAGUUCCACUGGCCAGGCAACAGAGGAUUGAGCAUCA
# B14: chr19:34227675:34227687:+|3pUTR|ENSG00000257103|msi1_unk|FALSE|overlapping (ssRNA)
# RNA: GGGAGUUCUACAGUCCGACGAUCUUAAAACAUGAGCAUUAAAUAUAUUUGGAAUAGCAGAAGGUUAAGUAAUUUCUUAUGUAUAGUUAAACUAAAGCAGUACUUCAGUGGGACUUAACAAGUAUUUUUUCAUCACUGAAAGGUCAACAGAGGAUUGAGCAUCA
# Target: MSI1 full-length (mouse, UniProt Q61474 1-362)
# Chain of UniProt Q61474 (Q61474 whole entry): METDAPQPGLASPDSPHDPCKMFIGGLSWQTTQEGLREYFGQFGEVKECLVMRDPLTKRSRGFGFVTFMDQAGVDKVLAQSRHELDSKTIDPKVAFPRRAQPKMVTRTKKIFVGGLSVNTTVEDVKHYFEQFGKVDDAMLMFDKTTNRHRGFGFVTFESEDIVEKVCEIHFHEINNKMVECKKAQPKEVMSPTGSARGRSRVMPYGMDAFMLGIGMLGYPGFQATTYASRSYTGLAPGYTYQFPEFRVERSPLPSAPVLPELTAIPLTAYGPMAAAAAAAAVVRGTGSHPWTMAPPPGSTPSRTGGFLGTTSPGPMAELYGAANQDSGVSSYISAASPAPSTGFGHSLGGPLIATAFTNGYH
# Assay: nsRBNS (natural sequence RNA bind-n-seq); RBNS binding buffer (assumed for nsRBNS): 25 mM Tris pH 7.5, 150 mM KCl, 3 mM MgCl2, 0.01% Triton X-100, 500 ug/ml BSA, 20 U/ml SUPERase-In, 4 C; UNK is unkempt and MSI1 is Musashi-1; names of the RNAs are library labels; protein concentration not given here; high values mean tight binding
row,Binder,binding signal
1,B1,0.401 enrichment R
2,B2,0.887 enrichment R
3,B3,0.668 enrichment R
4,B4,2.66 enrichment R
5,B5,0.268 enrichment R
6,B6,1.39 enrichment R
7,B7,1.25 enrichment R
8,B8,0.495 enrichment R
9,B9,0.397 enrichment R
10,B10,0.67 enrichment R
11,B11,0.232 enrichment R
12,B12,0.579 enrichment R
13,B13,1.98 enrichment R
14,B14,12.1 enrichment R
